Test results reported in PubChem BioAssay (NCATS).
Inconclusive means that the source gave no clear call. Such entries were picked first, then a sample of the others. Potencies of inconclusive entries are doubtful fits and often do not repeat. Calls of active or inactive are those of the source. Calls follow the shape of the dose curve; as a rule, active = well fitted inhibition curve with a large enough effect; inconclusive = small, poorly fitted or top-dose-only effect; inactive = no such curve, though single readings can be large or run the other way.

How the values were obtained:
[1] = target: Rap guanine nucleotide exchange factor 3 (Homo sapiens) (UniProt O95398); experiment: Confirmatory qHTS for antagonist of cAMP-regulated guanine nucleotide exchange factor 3 (EPAC1) (AID 1645880); settings: EPAC1 Rap1B-BODIPY-GDP exchange, fluorescence; activity, negative = inhibition: at 115 µM (top of the series); also: nearly all actives have a fitted effect of over 55% in size;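 as to activity, negative = inhibition: plate controls were DMSO only for no effect and full effect of the ATA control for full effect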
Method in brief: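 Released BODIPY-GDP fluoresces less than Rap1-bound BODIPY-GDP; the signal is followed at 480/540 nm at 5-min intervals over 30 min, after 5 min at room temperature. Reactions contain 100 nM EPAC1, 250 nM RAP1B-BODIPY-GDP and 50 uM GDP; results are normalized to ATA and DMSO.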

[2] = target: Rap guanine nucleotide exchange factor 4 (Homo sapiens) (UniProt Q8WZA2); experiment: Confirmatory qHTS for antagonist of cAMP-regulated guanine nucleotide exchange factor 4 (EPAC2) (AID 1645885); settings: activity change, negative = inhibition: at 12.7 µM (top of the series) unless noted; also: nearly all actives have a fitted effect of over 25% in size; as to activity change, negative = inhibition: % is scaled to controls: 0 for no effect and ±100 for the full control effect
Potency is read from the fitted curve at half-maximal effect; tags tell the direction and shape of the fitted curve.

Sequence of UniProt Q8WZA2 (Q8WZA2 whole entry, looked up): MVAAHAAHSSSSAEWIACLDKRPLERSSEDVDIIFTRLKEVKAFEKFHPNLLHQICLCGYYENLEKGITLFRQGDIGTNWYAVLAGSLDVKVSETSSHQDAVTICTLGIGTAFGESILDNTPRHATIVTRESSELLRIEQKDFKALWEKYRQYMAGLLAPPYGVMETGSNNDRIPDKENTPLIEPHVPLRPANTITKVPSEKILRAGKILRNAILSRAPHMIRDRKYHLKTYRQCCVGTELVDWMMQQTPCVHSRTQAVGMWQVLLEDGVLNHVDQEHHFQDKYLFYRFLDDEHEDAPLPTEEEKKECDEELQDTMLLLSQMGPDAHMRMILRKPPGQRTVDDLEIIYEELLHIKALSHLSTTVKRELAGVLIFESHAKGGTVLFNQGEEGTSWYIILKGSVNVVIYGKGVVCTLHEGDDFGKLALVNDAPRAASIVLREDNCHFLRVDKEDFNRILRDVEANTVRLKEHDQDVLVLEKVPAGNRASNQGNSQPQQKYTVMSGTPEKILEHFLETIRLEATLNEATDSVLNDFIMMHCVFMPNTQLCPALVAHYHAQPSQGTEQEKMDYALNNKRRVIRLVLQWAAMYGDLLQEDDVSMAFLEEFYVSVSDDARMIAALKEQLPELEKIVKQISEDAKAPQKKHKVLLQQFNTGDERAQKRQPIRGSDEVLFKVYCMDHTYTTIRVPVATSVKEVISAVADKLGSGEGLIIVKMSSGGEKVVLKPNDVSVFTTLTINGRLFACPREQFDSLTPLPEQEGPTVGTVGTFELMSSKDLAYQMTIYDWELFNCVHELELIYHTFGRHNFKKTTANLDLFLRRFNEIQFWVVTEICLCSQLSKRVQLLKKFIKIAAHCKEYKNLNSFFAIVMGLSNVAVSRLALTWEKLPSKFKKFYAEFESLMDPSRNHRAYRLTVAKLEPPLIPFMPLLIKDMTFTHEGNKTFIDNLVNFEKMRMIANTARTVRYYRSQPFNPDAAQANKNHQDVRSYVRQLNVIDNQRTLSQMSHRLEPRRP
Sequence of UniProt O95398 (O95398 whole entry, looked up): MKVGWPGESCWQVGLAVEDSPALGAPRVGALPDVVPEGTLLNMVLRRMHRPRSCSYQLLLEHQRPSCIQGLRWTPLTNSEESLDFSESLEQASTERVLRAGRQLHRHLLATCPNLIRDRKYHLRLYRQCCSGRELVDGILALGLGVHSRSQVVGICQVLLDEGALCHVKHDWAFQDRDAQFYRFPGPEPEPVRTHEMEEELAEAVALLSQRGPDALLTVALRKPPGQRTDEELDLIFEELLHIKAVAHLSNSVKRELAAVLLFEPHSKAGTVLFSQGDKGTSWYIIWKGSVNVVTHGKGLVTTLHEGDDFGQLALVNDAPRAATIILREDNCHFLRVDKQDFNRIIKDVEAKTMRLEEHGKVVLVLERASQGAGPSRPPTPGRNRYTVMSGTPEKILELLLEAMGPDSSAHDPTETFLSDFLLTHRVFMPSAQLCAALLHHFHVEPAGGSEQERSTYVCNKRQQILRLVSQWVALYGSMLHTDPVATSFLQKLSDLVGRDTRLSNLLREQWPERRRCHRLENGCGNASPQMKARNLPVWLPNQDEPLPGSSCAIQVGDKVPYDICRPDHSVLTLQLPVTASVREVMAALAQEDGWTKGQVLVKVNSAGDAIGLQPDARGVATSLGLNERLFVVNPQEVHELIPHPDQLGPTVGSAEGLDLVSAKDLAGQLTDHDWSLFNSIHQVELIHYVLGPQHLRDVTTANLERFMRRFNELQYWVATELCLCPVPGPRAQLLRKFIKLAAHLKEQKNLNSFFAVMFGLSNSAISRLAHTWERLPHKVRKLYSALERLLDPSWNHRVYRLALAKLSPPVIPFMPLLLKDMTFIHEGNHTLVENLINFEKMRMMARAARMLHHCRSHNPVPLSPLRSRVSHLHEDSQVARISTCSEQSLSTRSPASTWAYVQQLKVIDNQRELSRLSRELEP

COc1ccc(/C=C2/SC(=S)N(NS(=O)(=O)c3ccc(C)cc3)C2=O)cc1
Potency [1]: active: 47.8 µM
Potency [2]: inconclusive: 67.5 µM [inhibitor, partial curve, poor fit]

CC(C)C[C@@H](COc1ccccc1)N1CCN(CCc2ccccc2)CCC1=O
Potency [1]: inconclusive: 44.4 µM [inhibitor, partial curve, poor fit]
Potency [2]: inconclusive: 44.1 µM [inhibitor, partial curve]

Cc1ccc(S(=O)(=O)Nc2ccc3ccccc3c2[N+](=O)[O-])cc1
Potency [1]: active: 75.7 µM
Potency [2]: inconclusive: 37.9 µM [inhibitor, full curve, poor fit]

CC1(C(=O)NS(=O)(=O)c2ccc(C#N)cc2)CCN1C(=O)C1(c2ccccc2)CCCC1 (configuration not stated)
Potency [1]: active: 37.9 µM
Potency [2]: active: 33.8 µM

Cc1cc(/C=C2\SC(=S)NC2=O)cc(C)c1O
Potency [1]: active: 33.8 µM
Potency [2]: active: 0.675 µM

O=C(CN1Cc2ccccc2OC(c2ccsc2)C1)N1CCN(Cc2ccc3c(c2)OCO3)CC1 (configuration not stated)
Potency [1]: inactive
Potency [2]: inconclusive: 44.1 µM [inhibitor, partial curve]

CCCc1[nH]c2ccc(C(=O)OC)cc2c1CCC
Potency [1]: inconclusive: 53.6 µM [inhibitor, partial curve]
Potency [2]: active: 19 µM

O=[N+]([O-])c1ccc(C=NNc2ccc(S(=O)(=O)O)cc2)cc1
Potency [1]: inconclusive: 50.1 µM [inhibitor, partial curve]
Potency [2]: inconclusive: 8.49 µM [inhibitor, single point]

COc1cccc(/C=C2/NC(=O)N(CC(=O)Nc3ccc(C)cc3)C2=O)c1OCc1cccc(C(=O)O)c1
Potency [1]: inconclusive: 16.9 µM [inhibitor, full curve]
Potency [2]: inconclusive: 95.3 µM [inhibitor, partial curve, poor fit]

Cn1c2ccccc2c2cc(/C=N/NC(=O)c3cc(O)cc(O)c3)ccc21
Potency [1]: inconclusive: 75.7 µM [inhibitor, partial curve]
Potency [2]: inconclusive: 84.9 µM [inhibitor, single point]

Cn1c(=O)c(N)c2c3c(c(Br)ccc31)C(=O)c1ccccc1-2
Potency [1]: active: 26.9 µM
Potency [2]: active: 26.9 µM

COc1cccc(/C(=N/O)C2CC2c2ccc(Cl)cc2)c1 (configuration not stated)
Potency [1]: inactive
Potency [2]: inactive

O=C(Nc1ccccc1C(=O)O)c1cccc(S(=O)(=O)Nc2ccc(Br)cc2)c1
Potency [1]: active: 75.7 µM
Potency [2]: active: 42.6 µM

COc1ccc(-c2csc(NC(=O)c3ccc(C(C)(C)C)cc3)c2C(=O)O)cc1
Potency [1]: active: 37.9 µM
Potency [2]: inconclusive: 37.9 µM [inhibitor, partial curve]

CCOC(=O)[C@H](C)N1[C@H](C)[C@H](c2ccccc2)Oc2ccc(Cl)cc2S1(=O)=O
Potency [1]: inconclusive: 39.8 µM [inhibitor, partial curve, poor fit]
Potency [2]: inconclusive: 6.75 µM [inhibitor, partial curve, poor fit]

O=C1CC(=O)Nc2cc(S(=O)(=O)Nc3ccc(Cl)c(C(F)(F)F)c3)ccc2N1
Potency [1]: inactive
Potency [2]: inconclusive: 84.9 µM [inhibitor, partial curve, poor fit]

COc1ccc(-n2nnnc2C(c2ccccc2OC(F)(F)F)N2CCN(C/C=C/c3ccccc3)CC2)cc1 (configuration not stated)
Potency [1]: inactive
Potency [2]: inconclusive: 95.3 µM [inhibitor, single point]

CCC(C)(C)c1ccc(Oc2ccc(N)cc2)cc1
Potency [1]: inconclusive: 84.9 µM [inhibitor, single point]
Potency [2]: inconclusive: 75.7 µM [inhibitor, partial curve]

CCOC(=O)c1c(NC(=O)c2ccc(S(=O)(=O)N(C)CC3CCCO3)cc2)sc2c1CCN(C)C2 (configuration not stated)
Potency [1]: inconclusive: 84.9 µM [inhibitor, partial curve]
Potency [2]: inconclusive: 75.7 µM [inhibitor, partial curve]

CN(CC(=O)Nc1ccccc1Cl)C(=O)c1ccc(Cl)c(S(=O)(=O)N2CCCCCC2)c1
Potency [1]: inconclusive: 60.1 µM [inhibitor, partial curve]
activity change, negative = inhibition [2]: inconclusive: -33.5% [inhibitor] [at 114 µM]

CCOC(=O)C1Nc2ccc(C(F)(F)F)cc2C2C=CCC12 (configuration not stated)
Potency [1]: inconclusive: 44.7 µM [inhibitor, partial curve, poor fit]
Potency [2]: inactive
